# ChEMBL document CHEMBL4888484, “Replenishing the malaria drug discovery pipeline: Screening and hit evaluation of the MMV Hit Generation Library 1 (HGL1) against asexual blood stage Plasmodium falciparum ,using a nano luciferase reporter read-out” (2022)
# Screen size: about 150,000 compounds; about 540 (0.36%) showed an effect of 50% or more. The list shows a part of the results.
# Test system: Plasmodium falciparum
# Assay: Primary screen in NF54 nanoGlo assay, in single point, at 2uM, 72h; a lower Z score goes with more inhibition
# Assay type: functional, Erythrocyte
# Settings: timepoint 72 hour
Structure (SMILES),% Inhibition [%],Z score
CCCCn1nc(C2CCCC2)nc1[C@@H]1COCCO1,-8,1.09
Cc1noc(C)c1NC(=O)N[C@@H](C)Cc1ccsc1,-17,1.83
CCOc1ccccc1CNS(=O)(=O)c1cc(-c2nc(C)cs2)n(CC(=O)N2CCCC2)c1,9,-1.04
CCCCN(C)S(=O)(=O)N(CC)Cc1cnn(C)c1,-6,0.76
CC(C)C(CNC1CCC(S(C)(=O)=O)CC1)C(C)C (stereo unspecified),3,-0.44
Cc1ccccc1-c1cncc(C(=O)NCc2cccnc2)c1,-5,0.79
COC(=O)[C@H]1CCn2c(nnc2C(=O)Nc2ccc(C)c(C)c2)C1,1,-0.12
Cc1ccc2nc(N3CCC[C@H](C(=O)NCCCN(C)C4CCCCC4)C3)[nH]c2c1,6,-1.14
O=C(Cc1ccsc1)NCc1nnc2n1CC[C@H](C(F)(F)F)C2,-21,2.63
C=CCCS(=O)(=O)N(CC(C)C)c1cccc(O)c1,-6,0.77
CC(C)(C)CC(=O)NCc1ccc(-c2ccco2)o1,9,-1.27
O=C(COc1ccccc1Br)NCc1n[nH]c(=O)[nH]1,-14,1.45
COCCN(CCOC)CC(=O)Nc1cc(OC)cc(OC)c1,-3,0.41
CN(C)c1ccc(C#N)c(NS(=O)(=O)c2cc(Cl)sc2Cl)c1,-8,1.24
O=C(Cc1ccc(Cl)s1)Nc1nc2ccccc2s1,-14,1.57
CC(C)(C)n1nnc(C(=O)N[C@H](CC(=O)O)c2cccc(Br)c2)n1,-7,1.39
COCC[C@H]1CCCCN1C(=O)Nc1ccccc1C1CC1,-1,0.1
Cc1csc(Cn2c(=O)c(C#N)c3n(c2=O)CCC3)n1,-3,0.45
CCCC(=O)Nc1nc2n(n1)[C@H](c1ccc(Cl)cc1)CC(=O)N2,7,-0.91
CN1CCC(N[C@H]2CCCc3ccccc32)CC1,-15,2.79
Cc1onc(N)c1S(=O)(=O)N1CCOCC1,-20,1.8
CNc1ncccc1C(=O)NC[C@](C)(O)C(F)(F)F,2,-0.42

Structure (SMILES),% Inhibition [%],Z score
CC[C@@]1(C(=O)NCc2ccc(C)o2)CCCCC(=O)N1,-3,0.31
O=C(Nc1ccccc1-c1ccccc1)c1cc(C(=O)Nc2ccccc2-c2ccccc2)cc(N2C(=O)c3ccccc3C2=O)c1,4,-0.66
CCN(CC)C(=O)Cn1cc(C(=O)N(C)CCc2ccccn2)nn1,-12,1.52
NC1CC(c2cc(N3CCCCCCCC3)ncn2)C1 (stereo unspecified),-23,2.99
O=C(C1CCC2CCCCC2C1)N1CCC(O)(C(F)F)C1 (stereo unspecified),-12,1.74
CCNC(=O)c1cc(NC(=O)NCC2(CCOC)CC2)c(C)s1,3,-0.54
COc1ccc(Cn2nc(C)n(-c3ccc(Oc4ccccc4)cc3)c2=O)cc1,0,-0.05
CC[C@H]1CC(=O)NCc2nc3cc(C)ccn3c21,-2,0.29
COc1cccc(CN2CC3(CCN(C(=O)c4cccn4C)CC3)CC2=O)c1,1,-0.07
Cc1cccnc1N1CCN(C(=O)c2ccc(Cn3ccnc3)o2)CC1,-14,2.67
CC(=O)NC(C)(C)C[C@H](C)N1CCC2(CCCCCC2)C1,-15,1.38
CCCCNCCOCCOc1ccc(C)c(C)c1,-11,1.52
C[C@@H](COc1cccc(F)c1)NC(=O)c1nccn2ccnc12,-8,0.73
O=C(O)CCC(=O)NC1=NN2C(=NC(c3ccccc3)=C[C@H]2c2ccc(F)cc2)N1,-8,1.21
O=C(NC1CCN(C2CC2)CC1)C1CCCCCC1,-4,0.67
COC(=O)C1CC2CCCCC2N1S(=O)(=O)c1c(C)noc1C (stereo unspecified),-7,1.06
COCCN(Cc1ccsc1)Cc1cc(OC)ccn1,-8,0.88
CCN(CC)c1ccc([C@@H](C#N)N2CCOCC2)cc1,5,-0.62
C[C@@H](CC(=O)NCc1ccc[nH]1)N1CCCCC1=O,-9,1.35
CC(C)Oc1cccc(C(=O)NCc2cnc3n2CCC3)c1Cl,2,-0.35
CNc1snc(C)c1C(=O)N(C)CC1CCCCC1,1,-0.06
Cc1noc(NC(=O)Nc2cccc(C(F)(F)F)c2)c1C,-15,1.77

Structure (SMILES),% Inhibition [%],Z score
O=C(O[C@@H]1CCC[C@H]1n1cccn1)c1nc(C2CC2)n2ccccc12,-5,0.77
O=C(c1ncc(F)cc1F)N1CCC[C@H](c2nccn2CC2CC2)C1,1,-0.24
CC[C@@H](CO)NCc1ccc(OC)c(Cl)c1,11,-1.8
CCC(CC)NC(=O)Cn1c(-c2ccccc2)nn(-c2ccc(OC)cc2)c1=O,-13,1.24
COc1ccccc1OCC(=O)N1CCc2oncc2C1,-14,2.19
O=C(c1cncnc1)N1CCOCC12CC2,-14,2.1
CC(=O)N1CCc2cc(CNC(=O)c3ccc(C)cc3)ccc21,0,0.05
Cc1cc(C(=O)N[C@H]2CCOC[C@@H]2OCc2ccccn2)ccc1Cl,-12,1.68
N#Cc1cnn(-c2ccccc2)c1NC[C@H]1COC2(CCOCC2)O1,-6,0.86
COC(=O)c1cc(-c2cccc3ccccc23)on1,-13,2.38
Cc1ncc(CNCCCc2ccc(C(C)C)cc2)cn1,-5,0.67
Cn1ncnc1NC(=O)N1CC[C@H](c2cccc(C(F)(F)F)c2)C1,-6,0.64
Cn1ncc(C2CCC2)c1C(=O)N1CCC[C@H](c2nc3ccc(F)cc3o2)C1,-17,2.24
C[C@@H]1CN(S(=O)(=O)c2ccoc2)C[C@H](C)N1CC(F)(F)F,-8,1.23
O=C(NCCc1ccccc1)c1cc2n(n1)CCN(Cc1cccc(F)c1)C2=O,-10,1.44
CCc1cnccc1C(=O)N(C)C1(C(N)=O)CCCC1,-3,0.43
CCCCn1nc(-c2ccco2)nc1[C@H](CC)N1CCOCC1,2,-0.3
CCCn1nnnc1CN1C(=O)N[C@](CCC)(c2ccccc2)C1=O,-5,0.83
Cc1c[nH]c(CN(C)[C@@H](C)c2ccccn2)c(C)c1=O,7,-0.95
CC(NC1CC1)C(=O)N1CC(c2cccc(F)c2)OCC1(C)C (stereo unspecified),-7,1.27
COCCn1cc(N2C[C@@H](C(=O)Nc3cc(C)on3)CC2=O)cn1,-8,1.46
COc1cc(NC(=O)c2c(Br)c3ccccc3n2C)c(C(N)=O)cc1OC,3,-0.27

Structure (SMILES),% Inhibition [%],Z score
Cc1cnc(C2CCC2)n1[C@H]1CCN(C(=O)c2ccnn2C)C1,-15,1.9
COCCn1nnc2c1CCN(S(=O)(=O)CC1(C)CCCCC1)C2,30,-3.35
CC(NC(=O)C(Cc1ccccc1)NS(=O)(=O)c1ccccc1F)c1ccc(F)cc1 (stereo unspecified),13,-1.6
COc1ccc(NC(=O)Cn2c(C)ccc2C)cc1-c1nnn[nH]1,4,-0.5
C[C@H](Oc1ccccc1)C(=O)N1CCC(n2cc(C(=O)NC3CCCC3)nn2)CC1,2,-0.18
O=C(Nc1cnc(C(F)(F)F)nc1)[C@H]1CCCO1,-2,0.37
CCOc1ccc(OCc2nnc(C3CCC3)n2C)cc1,0,0.01
COc1ccc(-c2c(C)noc2NC(C)=O)cc1S(=O)(=O)Nc1ccccc1Cl,-7,1.02
CC(=O)c1ccc(S(=O)(=O)NC2(C(F)(F)F)CCOCC2)cc1,-12,1.89
CN1CC(NC(=O)c2cnnn2C)C(c2ccccc2)C1 (stereo unspecified),-6,0.86
COc1cc(OC)cc(C(=O)N2Cc3cncnc3C2)c1,-16,2.65
NC1CCC2CN(c3noc4ccc(Br)cc34)CC12 (stereo unspecified),12,-2.35
CCOC1CC(O)C12CCN(C(=O)c1cc(C(C)C)n(C)n1)CC2 (stereo unspecified),-16,2.28
CC1=C(c2ccccc2)S(=O)(=O)N=C1N1CC(C)CC(C)C1 (stereo unspecified),-6,0.94
CC(=O)c1ccc(-c2ccc3nc(-c4ccc(C)cc4)c(CCC(=O)NCc4ccco4)n3c2)cc1,-1,0.14
Cc1cnc(-c2noc(C=C3CC[C@H](C)C3)n2)s1,-7,0.68
O=C(NCc1ccc(CNC(=O)c2ccccc2)cc1)c1ccccc1,1,-0.12
Cc1ncsc1CN[C@@H](C)C1(Br)CC1,2,-0.28
Cc1cnc(-c2ccccc2)n1C1CCN(C(=O)CCC2CCCC2)CC1,-14,1.78
C[C@H](NC(=O)Cc1ccccc1)C(C)(C)C,-4,0.59
Cc1c(NC(=O)N[C@H]2[C@@H]3COC[C@@H]32)cnn1CC(C)C,-12,1.24
Cn1cncc1C(=O)NCC1CCN(c2cnsn2)CC1,-20,1.97
